Article PMC9911399, “Two distinct binding modes provide the RNA-binding protein RbFox with extraordinary sequence specificity”
Changes are numbered by the printed parent chain; changes in the protein carry UniProt numbers. The list shows a part of the results.

T1: RBFOX1 RRM (Homo sapiens, UniProt Q9NWB1 109-208)
T1 sequence: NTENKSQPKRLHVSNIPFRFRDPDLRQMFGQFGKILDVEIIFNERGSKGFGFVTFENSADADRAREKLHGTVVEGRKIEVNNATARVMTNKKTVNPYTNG

B1: GACUCGC (DNA:RNA)
RNA: GGGAGACCGGAAUUCAGAUUGUCCGACUCGCUUAAAUCCCGUCGUAGCCACCA
DNA 1: CAATCTGAATTCCGGTCTCCC
DNA 2: TGGTGGCTACGACGGGATT
B2: AGCGACA (DNA:RNA)
RNA: B1 RNA with G25A, A26G, U28G, C29A, G30C, C31A
DNA 1: CAATCTGAATTCCGGTCTCCC
DNA 2: TGGTGGCTACGACGGGATT
B3: UAGAUAG (DNA:RNA)
RNA: B1 RNA with G25U, C27G, U28A, C29U, G30A, C31G
DNA 1: CAATCTGAATTCCGGTCTCCC
DNA 2: TGGTGGCTACGACGGGATT
B4: ACAGAUC (DNA:RNA)
RNA: B1 RNA with G25A, A26C, C27A, U28G, C29A, G30U
DNA 1: CAATCTGAATTCCGGTCTCCC
DNA 2: TGGTGGCTACGACGGGATT
B5: UUCACCC (DNA:RNA)
RNA: B1 RNA with G25U, A26U, U28A, G30C
DNA 1: CAATCTGAATTCCGGTCTCCC
DNA 2: TGGTGGCTACGACGGGATT
B6: GAAUAUA (DNA:RNA)
RNA: B1 RNA with C27A, C29A, G30U, C31A
DNA 1: CAATCTGAATTCCGGTCTCCC
DNA 2: TGGTGGCTACGACGGGATT
B7: GAAGAAA (DNA:RNA)
RNA: B1 RNA with C27A, U28G, C29A, G30A, C31A
DNA 1: CAATCTGAATTCCGGTCTCCC
DNA 2: TGGTGGCTACGACGGGATT
B8: UACACCA (DNA:RNA)
RNA: B1 RNA with G25U, U28A, G30C, C31A
DNA 1: CAATCTGAATTCCGGTCTCCC
DNA 2: TGGTGGCTACGACGGGATT
B9: ACAACGU (DNA:RNA)
RNA: B1 RNA with G25A, A26C, C27A, U28A, C31U
DNA 1: CAATCTGAATTCCGGTCTCCC
DNA 2: TGGTGGCTACGACGGGATT
B10: AGAGAAU (DNA:RNA)
RNA: GGGAGACCGGAAUUCAGAUUGUCCAGAGAAUUUAAAUCCCGUCGUAGCCACCA
DNA 1: CAATCTGAATTCCGGTCTCCC
DNA 2: TGGTGGCTACGACGGGATT
B11: AUACGGG (DNA:RNA)
RNA: B10 RNA with G26U, G28C, A29G, A30G, U31G
DNA 1: CAATCTGAATTCCGGTCTCCC
DNA 2: TGGTGGCTACGACGGGATT
B12: CAUUCUC (DNA:RNA)
RNA: B1 RNA with G25C, C27U, G30U
DNA 1: CAATCTGAATTCCGGTCTCCC
DNA 2: TGGTGGCTACGACGGGATT
B13: UCUGUCU (DNA:RNA)
RNA: B10 RNA with A25U, G26C, A27U, A29U, A30C
DNA 1: CAATCTGAATTCCGGTCTCCC
DNA 2: TGGTGGCTACGACGGGATT
B14: UGACAUU (DNA:RNA)
RNA: B10 RNA with A25U, G28C, A30U
DNA 1: CAATCTGAATTCCGGTCTCCC
DNA 2: TGGTGGCTACGACGGGATT
B15: AAGCCUU (DNA:RNA)
RNA: B10 RNA with G26A, A27G, G28C, A29C, A30U
DNA 1: CAATCTGAATTCCGGTCTCCC
DNA 2: TGGTGGCTACGACGGGATT
B16: CCCUCAU (DNA:RNA)
RNA: B1 RNA with G25C, A26C, G30A, C31U
DNA 1: CAATCTGAATTCCGGTCTCCC
DNA 2: TGGTGGCTACGACGGGATT
B17: GGUCAUU (DNA:RNA)
RNA: B10 RNA with A25G, A27U, G28C, A30U
DNA 1: CAATCTGAATTCCGGTCTCCC
DNA 2: TGGTGGCTACGACGGGATT
B18: AAGAGCA (DNA:RNA)
RNA: B10 RNA with G26A, A27G, G28A, A29G, A30C, U31A
DNA 1: CAATCTGAATTCCGGTCTCCC
DNA 2: TGGTGGCTACGACGGGATT
B19: ACAUAGC (DNA:RNA)
RNA: B10 RNA with G26C, G28U, A30G, U31C
DNA 1: CAATCTGAATTCCGGTCTCCC
DNA 2: TGGTGGCTACGACGGGATT
B20: ACUCAAA (DNA:RNA)
RNA: B10 RNA with G26C, A27U, G28C, U31A
DNA 1: CAATCTGAATTCCGGTCTCCC
DNA 2: TGGTGGCTACGACGGGATT

Target: T1, RBFOX1 RRM
Assay: EMSA; HiTS-Eq, 1 nM pool, 10 min; buffer printed only for the single-RNA assays: 10 mM Tris pH 7.5, 150 mM NaCl, 3.4 mM EDTA, 0.001% NP-40, 30 C
Settings: tags: His6 N-terminal (pET28a); label: 5' 32P
In short: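 Purified RbFox RRM, wild type or mutant, was incubated for 10 min in 50 µL with 1 nM of a 5′-radiolabelled RNA pool carrying 7 randomized nucleotides, whose flanks were annealed to DNA oligonucleotides, over a series of increasing protein concentrations. Unbound RNA was resolved on 8% native PAGE, cut out, reverse-transcribed, barcoded by PCR and sequenced on an Illumina HiSeq 2500. Relative association constants were derived from changes in read counts for each RNA species versus the control reaction and normalised to the cognate motif.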

Row | Binder | binding signal
1 | B1 | 0.0153 KA relative to UGCAUGU
2 | B2 | 0.00503 KA relative to UGCAUGU
3 | B3 | 0.0131 KA relative to UGCAUGU
4 | B4 | 0.0041 KA relative to UGCAUGU
5 | B5 | 0.00269 KA relative to UGCAUGU
6 | B6 | 0.00348 KA relative to UGCAUGU
7 | B7 | 0.00856 KA relative to UGCAUGU
8 | B8 | 0.00208 KA relative to UGCAUGU
9 | B9 | 0.00192 KA relative to UGCAUGU
10 | B10 | 0.00723 KA relative to UGCAUGU
11 | B11 | 0.00291 KA relative to UGCAUGU
12 | B12 | 0.00137 KA relative to UGCAUGU
13 | B13 | 0.0121 KA relative to UGCAUGU
14 | B14 | 0.0112 KA relative to UGCAUGU
15 | B15 | 0.0057 KA relative to UGCAUGU
16 | B16 | 0.00127 KA relative to UGCAUGU
17 | B17 | 0.0139 KA relative to UGCAUGU
18 | B18 | 0.00743 KA relative to UGCAUGU
19 | B19 | 0.00213 KA relative to UGCAUGU
20 | B20 | 0.00466 KA relative to UGCAUGU
